Test results from PubChem BioAssay (NCI).
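Following 48 hours of exposure in 96-well plates, responses at five concentrations were used to interpolate endpoints linearly. Abbreviation: GI50, concentration required for 50% inhibition of growth.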 Some entries of the source have several records that differ or are many. The list is limited to them. An entry can have further records. For some assays here: Records of one sample usually come from different ranges of test concentrations, not given here; some values may only mark the edge of a range. Records carry a tag for their origin. A, B and so on number the origins entry by entry. For some assays here: The values listed for one entry repeat one measurement (runs, samples, wells, individuals or studies).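 TGI is the concentration that stops growth completely.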

Tests used:
Assay in all cases: NCI tumour cell line growth inhibition, 48 h
786-0 renal = tested on: 786-0 renal
A498 renal = tested on: A498 renal
A549 NSCLC = tested on: A549 NSCLC
ACHN renal = tested on: ACHN renal
CAKI-1 renal = tested on: CAKI-1 renal
CCRF-CEM leukemia = tested on: CCRF-CEM leukemia
DLD-1 colon = tested on: DLD-1 colon
DMS 114 small cell lung = tested on: DMS 114 small cell lung
DMS 273 small cell lung = tested on: DMS 273 small cell lung
EKVX NSCLC = tested on: EKVX NSCLC
HCC-2998 colon = tested on: HCC-2998 colon
HCT-116 colon = tested on: HCT-116 colon
HCT-15 colon = tested on: HCT-15 colon
HL-60(TB) leukemia = tested on: HL-60(TB) leukemia
HOP-18 NSCLC = tested on: HOP-18 NSCLC
HOP-62 NSCLC = tested on: HOP-62 NSCLC
HOP-92 NSCLC = tested on: HOP-92 NSCLC
HT29 colon = tested on: HT29 colon
IGROV1 ovarian = tested on: IGROV1 ovarian
K-562 leukemia = tested on: K-562 leukemia
KM12 colon = tested on: KM12 colon
KM20L2 colon = tested on: KM20L2 colon
LOX IMVI melanoma = tested on: LOX IMVI melanoma
LXFL 529 NSCLC = tested on: LXFL 529 NSCLC
M14 melanoma = tested on: M14 melanoma
M19-MEL melanoma = tested on: M19-MEL melanoma
MALME-3M melanoma = tested on: MALME-3M melanoma
MOLT-4 leukemia = tested on: MOLT-4 leukemia

## O=C1NC2C(CC(O)C(O)C2O)c2cc3c(c(O)c21)OCO3 (stereo unspecified)
786-0 renal
  GI50: 53.7 nM, < 14.6 nM [sample A, mean of 2 tests] and 2.54 µM [sample B, mean of 2 tests]
  TGI: 413 nM, 105 nM [sample A, mean of 2 tests] and 14.7 µM [sample B, mean of 2 tests]
A498 renal
  GI50: 136 nM, 26.5 nM [sample A, mean of 2 tests] and 3.62 µM [sample B, mean of 2 tests]
  TGI: 457 nM, 128 nM [sample A, mean of 2 tests] and 17.8 µM [sample B, mean of 2 tests]
A549 NSCLC
  GI50: 106 nM, 18.1 nM [sample A, mean of 2 tests] and 3.55 µM [sample B, mean of 2 tests]
  TGI: 669 nM, 234 nM [sample A, mean of 2 tests] and 29.8 µM [sample B, mean of 2 tests]
ACHN renal
  GI50: 87.7 nM, < 16 nM [sample A, mean of 2 tests] and 2.5 µM [sample B, mean of 2 tests]
  TGI: 476 nM, 63.9 nM [sample A, mean of 2 tests] and 10.7 µM [sample B, mean of 2 tests]
CAKI-1 renal
  GI50: < 18.9 nM [sample A, mean of 2 tests] and 3.18 µM [sample B, mean of 2 tests]
  TGI: 500 nM [sample A, 1 test] and 124 nM [sample A, mean of 2 tests] and 18.4 µM [sample B, mean of 2 tests]
CCRF-CEM leukemia
  GI50: 26.6 nM [sample A, 1 test] and < 11.6 nM [sample A, mean of 2 tests] and 1.52 µM [sample B, mean of 2 tests]
  TGI: 196 nM [sample A, 1 test] and 38.3 nM [sample A, mean of 2 tests] and 9.51 µM [sample B, mean of 2 tests]
DLD-1 colon
  GI50: 37.3 nM [sample A, 1 test] and 20.1 nM [sample A, mean of 2 tests] and 2.97 µM [sample B, 1 test]
  TGI: 250 nM [sample A, 1 test] and 15.3 µM [sample B, 1 test]
DMS 114 small cell lung
  GI50: 37.5 nM, < 14.4 nM [sample A, mean of 2 tests] and 2.91 µM [sample B, mean of 2 tests]
  TGI: 260 nM, 61 nM [sample A, mean of 2 tests] and 13.8 µM [sample B, mean of 2 tests]
DMS 273 small cell lung
  GI50: 124 nM [sample A, 1 test] and < 16.8 nM [sample A, mean of 2 tests] and 2.65 µM [sample B, mean of 2 tests]
  TGI: 564 nM [sample A, 1 test] and 61.6 nM [sample A, mean of 2 tests] and 12.5 µM [sample B, mean of 2 tests]
EKVX NSCLC
  GI50: 40.2 nM [sample A, 1 test] and 87.5 nM [sample A, mean of 2 tests] and 3.44 µM [sample B, 1 test]
  TGI: 168 nM [sample A, 1 test] and 377 nM [sample A, mean of 2 tests] and 14.3 µM [sample B, 1 test]
HCC-2998 colon
  GI50: < 13.4 nM [sample A, mean of 2 tests] and 2.09 µM [sample B, mean of 2 tests]
  TGI: 59 nM [sample A, mean of 2 tests] and 6.71 µM [sample B, mean of 2 tests]
HCT-116 colon
  GI50: 33.1 nM, < 10.5 nM [sample A, mean of 2 tests] and 1.68 µM [sample B, mean of 2 tests]
  TGI: 161 nM, 32 nM [sample A, mean of 2 tests] and 8.05 µM [sample B, mean of 2 tests]
HCT-15 colon
  GI50: 74.4 nM [sample A, 1 test] and 21.9 nM [sample A, mean of 2 tests] and 3.25 µM [sample B, mean of 2 tests]
  TGI: 502 nM [sample A, 1 test] and > 40.6 µM [sample B, mean of 2 tests]
HL-60(TB) leukemia
  GI50: 23.6 nM, 10.1 nM [sample A, mean of 2 tests] and 1.71 µM [sample B, mean of 2 tests]
  TGI: 76.1 nM, < 21.5 nM [sample A, mean of 2 tests] and 4.75 µM [sample B, mean of 2 tests]
HOP-18 NSCLC
  GI50: 15.5 nM [sample A, 1 test] and 122 nM [sample A, mean of 2 tests] and 2.56 µM [sample B, 1 test]
  TGI: 381 nM [sample A, 1 test] and 609 nM [sample A, mean of 2 tests] and 20.7 µM [sample B, 1 test]
HOP-62 NSCLC
  GI50: 48.2 nM [sample A, 1 test] and 15.6 nM [sample A, mean of 2 tests] and 3.29 µM [sample B, mean of 2 tests]
  TGI: 265 nM [sample A, 1 test] and 57.5 nM [sample A, mean of 2 tests] and 13 µM [sample B, mean of 2 tests]
HOP-92 NSCLC
  GI50: 20.5 nM, < 10 nM [sample A, 1 test] and 456 nM, 2.41 µM [sample B, 1 test]
  TGI: 88.6 nM, 49.5 nM [sample A, 1 test] and 25.4 µM [sample B, 1 test]
HT29 colon
  GI50: 54.8 nM, < 14.2 nM [sample A, mean of 2 tests] and 2.4 µM [sample B, mean of 2 tests]
  TGI: 942 nM, 96.2 nM [sample A, mean of 2 tests] and 15.5 µM [sample B, mean of 2 tests]
IGROV1 ovarian
  GI50: 26.6 nM [sample A, 1 test] and 145 nM [sample A, mean of 2 tests] and 4.57 µM [sample B, 1 test]
  TGI: 64.8 nM [sample A, 1 test] and 626 nM [sample A, mean of 2 tests] and 45.2 µM [sample B, 1 test]
K-562 leukemia
  GI50: 32 nM, < 12.6 nM [sample A, mean of 2 tests] and 1.81 µM [sample B, mean of 2 tests]
  TGI: 291 nM, 54 nM [sample A, mean of 2 tests] and 11 µM [sample B, mean of 2 tests]
KM12 colon
  GI50: 39.3 nM, < 11.6 nM [sample A, mean of 2 tests] and 1.66 µM [sample B, mean of 2 tests]
  TGI: 282 nM, 74.5 nM [sample A, mean of 2 tests] and 11.9 µM [sample B, mean of 2 tests]
KM20L2 colon
  GI50: < 10 nM [sample A, 1 test] and 53.6 nM [sample A, mean of 2 tests] and 2.74 µM [sample B, 1 test]
  TGI: 82.4 nM [sample A, 1 test] and 694 nM [sample A, mean of 2 tests] and 43.5 µM [sample B, 1 test]
LOX IMVI melanoma
  GI50: 31.5 nM, 10.1 nM [sample A, mean of 2 tests] and 1.34 µM [sample B, mean of 2 tests]
  TGI: 282 nM, 24.2 nM [sample A, mean of 2 tests] and 4.4 µM [sample B, mean of 2 tests]
LXFL 529 NSCLC
  GI50: 43.3 nM, < 13 nM [sample A, mean of 2 tests] and 2.4 µM [sample B, mean of 2 tests]
  TGI: 487 nM, 85.8 nM [sample A, mean of 2 tests] and 14.6 µM [sample B, mean of 2 tests]
M14 melanoma
  GI50: 49 nM, < 12.3 nM [sample A, mean of 2 tests] and 1.94 µM [sample B, mean of 2 tests]
  TGI: 180 nM, 30.1 nM [sample A, mean of 2 tests] and 5.38 µM [sample B, mean of 2 tests]
M19-MEL melanoma
  GI50: 39.8 nM, < 12.7 nM [sample A, mean of 2 tests] and 2.35 µM [sample B, mean of 2 tests]
  TGI: 252 nM, 49.1 nM [sample A, mean of 2 tests] and 9.9 µM [sample B, mean of 2 tests]
MALME-3M melanoma
  GI50: 59.8 nM, 18.3 nM [sample A, mean of 2 tests] and 1.92 µM [sample B, mean of 2 tests]
  TGI: 309 nM, 71 nM [sample A, mean of 2 tests] and 7.47 µM [sample B, mean of 2 tests]
MOLT-4 leukemia
  GI50: 21.8 nM, < 12.7 nM [sample A, mean of 2 tests] and 1.6 µM [sample B, mean of 2 tests]
  TGI: 88.5 nM, < 23.3 nM [sample A, mean of 2 tests] and 4.8 µM [sample B, mean of 2 tests]
